Where “and” joins values, the source holds several entries; their conditions need not be identical. Equal entries are not always repeated. In all, about 110,000 compounds went through this assay and about 230 (0.21%) showed an effect of 50% or more. The list shows a part of the results.
molecular target: DPAP1 (Plasmodium falciparum, UniProt Q8IIJ9); test: primary screen, percent inhibition; read by cleavage of a fluorogenic dipeptide substrate; higher = more effect of the substance; parameters: species or system P. falciparum D10 trophozoite lysates; single well
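Further: 30 min substrate incubation versus DMSO and 10 µM JCP410 controls.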

Chain of DPAP1 (Q8IIJ9 whole entry, looked up): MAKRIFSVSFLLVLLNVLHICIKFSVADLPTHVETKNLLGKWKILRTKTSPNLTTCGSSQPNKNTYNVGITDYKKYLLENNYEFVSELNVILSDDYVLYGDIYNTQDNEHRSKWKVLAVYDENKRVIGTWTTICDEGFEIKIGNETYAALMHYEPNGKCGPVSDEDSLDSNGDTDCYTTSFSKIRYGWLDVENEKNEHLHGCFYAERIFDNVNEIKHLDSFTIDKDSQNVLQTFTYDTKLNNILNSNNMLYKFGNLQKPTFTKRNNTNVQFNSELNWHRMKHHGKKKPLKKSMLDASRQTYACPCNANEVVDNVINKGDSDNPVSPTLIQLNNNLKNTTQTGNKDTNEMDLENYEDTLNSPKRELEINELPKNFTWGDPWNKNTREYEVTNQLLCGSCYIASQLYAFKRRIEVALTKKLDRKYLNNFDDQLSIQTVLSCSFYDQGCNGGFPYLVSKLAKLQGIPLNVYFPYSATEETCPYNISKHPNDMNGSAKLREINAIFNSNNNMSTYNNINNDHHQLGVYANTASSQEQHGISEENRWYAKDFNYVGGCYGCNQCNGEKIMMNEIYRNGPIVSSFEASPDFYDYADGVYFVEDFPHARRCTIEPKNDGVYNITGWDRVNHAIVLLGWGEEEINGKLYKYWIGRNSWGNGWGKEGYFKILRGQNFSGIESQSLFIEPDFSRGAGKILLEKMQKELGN

Compound | % Inhibition @ 10 uM
COCCCN1C(=O)S/C(=C/c2cc(Cl)c(O)c(Cl)c2)C1=O | -1.04%
COc1ccccc1CNC(=O)C1=C(C)C(=O)OC12CCC(C)CC2 (stereo not shown) | -1.89%
CC(=O)OC1(C#CCN2CCN(C)CC2)CCCCC1 | -1.15%
COc1ccc(OCC(=O)Nc2ccccc2-c2ccccc2)cc1 | -7.75%
CC1=CC(C)(C)NC(=S)N1c1ccc2ccccc2c1 | -0.687%
CCOC(=O)c1c(N)n(CCc2ccccc2)c2nc3ccccc3nc12 | -12.5%
Cc1c(Br)c(C(F)(F)F)nn1CC(=O)NCCN1CCOCC1 | -2.6%
O=C(c1nnc(Cc2ccc(F)cc2Cl)o1)N1CCN(C2CCCCC2)CC1 | 8.63%
CC1C(c2ccc(F)cc2)=[N+]([O-])C(C)(C(=O)c2ccccc2)N1O (stereo not shown) | 1.63%
COC(=O)C1=C(C)OC(=O)C1(NC(=O)c1ccccc1)C(F)(F)F (stereo not shown) | -4.49%
COc1ccc2c(c1)SCC/C2=C\CN1C(=O)CCC1=O | 0.408%
CCc1n[nH]c(SCc2ccc(OC)cc2)n1 | -3.06%
Cc1sc2c(c1C)CSC(C(=O)NCc1ccccc1Cl)=C2 | -7.05%
CCOc1ccc(-c2csc(/C(C#N)=C/c3ccc(N(C)C)cc3)n2)cc1 | 0.98%
O=C1CSC2(CN3CCC2CC3)N1 (stereo not shown) | -4.01%
CCCOC(=O)c1c(NC(=O)c2ccc3c(c2)OCO3)sc2c1CCC(C)C2 (stereo not shown) | 3.94%
CC1=C(C(=O)OCC2CCCCC2)C(c2cccc(Cl)c2)NC(=O)N1 (stereo not shown) | 8.87%
CC(C)(C)c1ccc(S(=O)(=O)NCC(=O)Nc2sc3c(c2C(N)=O)CCCC3)cc1 | 2.63%
COCCCN1C(=O)c2[nH]nc(-c3ccccc3O)c2C1c1cc(Br)c(O)c(OC)c1 (stereo not shown) | -5.18%
COc1ccc(-c2noc(CC(=O)NCCN(C)C)n2)cc1 | 0.304%
O=C(Nc1ccc(F)cc1F)c1cnccn1 | 1.26%
O=P(Nc1cccnc1)(Oc1ccccc1Cl)Oc1ccccc1Cl | 5.7%
O=C(COc1ccc(-c2cnc3ccccc3n2)cc1)c1ccc(F)cc1 | -1.43%
COc1ccc(C2C(C#N)=C(N)Oc3[nH]nc(-c4ccccn4)c32)c(OC)c1OC (stereo not shown) | -2.78%
Cc1cc(C)nc(NC(=O)CCCOc2ccc(Cl)cc2C)n1 | -1.33%

Compound | % Inhibition @ 10 uM
Cc1ccc(-c2cc(C(F)(F)F)n3nc(C(=O)NCc4c(C)nn(C)c4C)cc3n2)cc1 | -5.44%
CC(Oc1cccc(Cl)c1)C(=O)Nc1ncccc1Cl (stereo not shown) | 0.528%
COc1cc(CN2CCNCC2)cc2c1OCO2 | -4.89%
CCCCOC(=O)c1ccc(NS(=O)(=O)c2ccc(Cl)cc2)cc1 | 4.81%
COC(=O)c1sc(-c2ccccc2)cc1NC(=O)c1ccc(OC)c(OC)c1 | 1.22%
COc1cc(-c2nnc3sc(-c4ccccc4C)nn23)cc(OC)c1OC | 1.25%
Cc1ccc(S(=O)(=O)CCc2nc3ccccc3o2)cc1C | -13.6%
CC(=O)c1cccc(NC(=O)c2sc3ccccc3c2Cl)c1 | -2.56%
CCN1CCN(C(=O)Cn2ncc3c4ccccc4n(C)c3c2=O)CC1 | -5.49%
CCc1cc2c(=O)c(-c3nc4ccccc4[nH]3)coc2c(CN2CCCC(C)C2)c1O (stereo not shown) | -1.11%
COc1ccc(CNC2CC(C)(C)NC(C)(C)C2)cc1 | -1.6%
CN(C)C(=O)Cc1ccc2c3c(cccc13)CC2 | 4.38%
O=C(OCc1ccccc1F)c1ccc(-n2nnnc2Cc2ccccc2F)cc1 | 4.57%
COc1cc(C(=O)N2CCN(Cc3ccc(OC)c(OC)c3OC)CC2)cc(OC)c1OC | 2.26%
Cc1cccc2c(C(=O)O)cc(C(=O)O)nc12 | 1.64%
O=C1C2C3C=CC(C2C(=O)N1c1nn[nH]n1)C1C(=O)N(c2nnn[nH]2)C(=O)C31 (stereo not shown) | -2.42%
COc1ccc(-c2nc(CS(=O)CC(=O)NCCc3ccc(OC)c(OC)c3)c(C)o2)cc1 (stereo not shown) | 2.37%
CNC(=O)C1CCCN(c2nn3cc(-c4ccc(C)cc4)nc3s2)C1 (stereo not shown) | -6.76%
COc1cccc(-c2nc(SCCOc3ccccc3C)n3[nH]c(=O)cc3n2)c1 | -0.678%
C=CCc1ccccc1OCc1nc2ccccc2n1CC=C | -4.75%
N#CC(=C1Nc2ccccc2N1)S(=O)(=O)c1ccccc1 | -2.07%
CC(C)C[C@H](NC(=O)OCc1cccc(OCc2ccccc2)c1)C(=O)NCC#N | -4.72%
Cc1ccc(NC(=O)CN(c2ccc(C(C)C)cc2)S(C)(=O)=O)cc1 | -3.18%
Cc1ccc(/C=C2/C(=N)N3C(=NC2=O)SN=C3S(=O)(=O)C(C)C)cc1 | -3.39%
Cc1cc(C)c2c(N)c(C(=O)Nc3ccc(Br)cc3)sc2n1 | 1.96%

Compound | % Inhibition @ 10 uM
CC1=C(C(=O)Nc2ccc(Br)cc2)C(c2ccc3c4c(cccc24)CC3)NC(S)=N1 (stereo not shown) | -0.233%
COc1cccc(CSc2nc3ccccc3c3nc(C)nn23)c1 | 2.24%
COc1cc(C(=O)NCc2nnc(SCC(=O)NC3CCCCC3)o2)cc(OC)c1OC | 1.64%
C#CCOc1c(Cl)cc(C2C3=C(CCCC3=O)N(CCC(=O)O)C3=C2C(=O)CCC3)cc1OC | -7.08%
Cc1ccc(C2=NN=C(NC(=O)CSc3ccccc3)SC2)cc1 | -4.07%
O=C(NC1CCCC1)c1ccc2c(c1)sc1nc(-c3ccccc3)cn12 | 2.46%
CN(CC(=O)Nc1ccc(Oc2ccccc2)cc1)S(=O)(=O)c1ccc(Cl)cc1 | 3.65%
COCCNC(=O)Cn1c(=O)n(CCCC(=O)NCc2ccco2)c(=O)c2sccc21 | -4.43%
CC[C@H](NC(=O)C(Cc1nccs1)NC(=O)c1ccc(-c2ccccc2Cl)cc1)C(=O)c1nc2ccccc2o1 (stereo partly shown) | -0.207%
C/C=C/Cn1c(N2CCCCCC2)nc2c1c(=O)[nH]c(=O)n2C | -2.84%
O=C(COc1ccc2ccccc2c1)Nc1nc(-c2ccccc2)cs1 | -2.07%
C1=C(N2CCCC2)Cc2ccccc21 | 0.317%
CCOC(=O)c1cnc2c(OC)cccc2c1N1CCN(c2ccccn2)CC1 | -2.4%
Cc1ccc(OCC(=O)Nc2sc3c(c2C(N)=O)CCCC3)cc1 | -1.49%
Fc1ccc(CN2CCN(c3cccc(Cl)c3)CC2)cc1F | -0.127%
COc1ccc(OC)c(C2=NOC(C(=O)N3CC4(C)CC3CC(C)(C)C4)C2)c1 (stereo not shown) | 1.24%
CCOc1ccc(C2CC(=O)N3C(=C2C#N)SCC3(O)c2ccc(OCC)cc2)cc1 (stereo not shown) | -0.0235%
C=CCSc1nc(N)c(C#N)cc1C#N | -0.828%
CCOC(=O)c1c(NC(=O)c2cccs2)sc2c1CCN(C(=O)OCC)C2 | 2.8%
CC(C)(C)C(=O)/C(=C/c1ccc(Cl)cc1)n1cncn1 | -3.49%
COc1cc(C(=O)Nc2ccc3nn(-c4ccc(C)cc4)nc3c2)cc(OC)c1OC | -7.25%
COc1ccc(-c2cc(C(=O)NCC(C)C)c3ccccc3n2)cc1 | -2.46%
O=C(O)C1Cc2c([nH]c3ccccc23)CN1 (stereo not shown) | 4.54% and -2.88%
Oc1ccccc1-c1nc2c3ccccc3nc(S)n2n1 | 7.7%
COc1cccc(N(CC(=O)NC2CCCCC2)S(=O)(=O)c2ccc(C)cc2)c1 | 5.54%

Compound | % Inhibition @ 10 uM
CO/C(O)=C1\C(C)=NC2=C(C(=O)CC(c3cccs3)C2)C1c1ccc2c(c1)OCO2 (stereo not shown) | 2.26%
O=C(NCc1ccccc1)C(c1ccc(F)cc1)N(Cc1ccco1)C(=O)Cn1nnc2ccccc21 (stereo not shown) | -8.69%
OC1=C2C(=Nc3ccccc3NC2c2ccccc2F)CC(c2cccs2)C1 (stereo not shown) | 2.36%
COc1cc(OC)cc(C2NCCc3c2[nH]c2ccccc32)c1 (stereo not shown) | 1.26%
COc1cc(C(=O)Nc2ccc3c(c2)C(=O)N(C)C3=O)ccc1OCc1ccc(Cl)cc1 | -1.88%
O=C1CCCC2=C1C(NC(=O)C1CC1)(C(F)(F)F)C(=O)N2Cc1ccccc1 (stereo not shown) | 1.91%
Cc1cc(NCCCn2ccnc2)n2c(nc3ccccc32)c1C#N | -1.08%
Cc1ccc(/C=C(/NC(=O)c2ccc(C)cc2)C(=O)N2CCOCC2)cc1 | -6.27%
COc1ccc(CCn2c(=O)c3cccnc3n(Cc3ccc(C#N)cc3)c2=O)cc1OC | -5.27%
CC(C)OCc1nc(O)c2c(n1)-c1ccccc1CC21CCCCC1 | 6.39%
CCCCCc1ccc(-c2ccc(OC(F)F)cc2)nc1 | 1.4%
O=C(CN1C(=O)c2ccccc2C1=O)NCc1cc([N+](=O)[O-])ccc1O | -1.29%
N#CC1=C(N)Oc2[nH]nc(-c3ccc(F)cc3)c2C12C(=O)Nc1ccccc12 (stereo not shown) | -1.06%
Fc1ccc(Cn2c(N3CCOCC3)nc3ccccc32)cc1 | -5.53%
CCCO/C(O)=C1\C(C)=NC2=C(C(=O)CC(C)(C)C2)C1c1ccccc1OCC (stereo not shown) | 0.736%
CCOc1cccc2c1OC1(CCCCC1)N1N=C(c3ccccc3)CC21 (stereo not shown) | -5.4%
CCc1nnc(NC(=O)c2cc3c(=O)oc4ccc(C)cc4c3s2)s1 | -3.68%
Cn1c(=O)cc(NCCc2ccccc2)[nH]c1=O | 8.91%
COc1cccc(-c2nc3nc(C)c(CCC(=O)NCC4CCCO4)c(C)n3n2)c1 (stereo not shown) | -8.02%
O=C(O)CCC(=O)/N=C1\SC2CS(=O)(=O)CC2N1Cc1ccccc1 (stereo not shown) | -2.92%
COc1ccc(NC(=O)c2ccc([N+](=O)[O-])cc2)cc1OC | -2.78%
Cc1ccc(OCC(=O)Nc2cc(C)ccc2C)c(C)c1 | -4.15%
